ChEMBL document CHEMBL4888484, “Replenishing the malaria drug discovery pipeline: Screening and hit evaluation of the MMV Hit Generation Library 1 (HGL1) against asexual blood stage Plasmodium falciparum ,using a nano luciferase reporter read-out” (2022)
The whole screen tested about 150,000 compounds, of which about 540 (0.36%) showed an effect of 50% or more. This is one part of the list.

test system: Plasmodium falciparum; experiment: Primary screen in NF54 nanoGlo assay, in single point, at 2uM, 72h; a lower Z score goes with more inhibition; assay type: functional, Erythrocyte; details: timepoint 72 hour

| SMILES | % Inhibition [%] | Z score |
| --- | --- | --- |
| O=C(c1ccc2c(c1)OCO2)N1C[C@H](c2ccccc2)[C@@H]2[C@H]1C1CCN2CC1 | -2 | 0.3 |
| CCCN1CC[C@@H](CO)N(C)c2nc(C)ccc2C1 | 0 | -0.08 |
| CN(C)CCC(=O)c1ccc(Br)cc1 | 4 | -0.55 |
| Cc1cnn(CC(C)NC(C)c2nc(C3CC3)no2)c1 (stereo not drawn) | 1 | -0.2 |
| O=C(NCc1ccco1)[C@H]1CCCN(S(=O)(=O)c2ccc3[nH]c(=O)oc3c2)C1 | -23 | 2.31 |
| c1ccc(-c2ccno2)c(OC[C@@H]2CCCN3CCCC[C@H]23)c1 | 0 | -0.02 |
| COc1cccc([C@H]2CN(C(=O)c3cncs3)[C@@H]3C4CCN(CC4)[C@H]23)c1 | 0 | 0.02 |
| CCn1ccnc(N2CCC[C@H]2c2cccnc2)c1=O | 0 | 0.08 |
| COc1cccc(CC(=O)N2C[C@@H]3CC[C@H]2CN(Cc2ccccn2)C3)c1 | -22 | 2.89 |
| c1nc(NC2CC2)cc(N2CCN3CCCC[C@H]3C2)n1 | -1 | 0.12 |
| O=S(=O)(F)CCN(CCS(=O)(=O)F)Cc1cn(C2CCC2)nn1 | 1 | -0.14 |
| CN(C)C(=O)N1C[C@@H](c2cccc(O)c2)[C@@H]2[C@H]1C1CCN2CC1 | -5 | 0.73 |
| Cc1n[nH]c(C)c1CN1C2CCCC1CC2 | 12 | -2.13 |
| O=C(c1cnn2cccnc12)N1C[C@H](c2ccccc2)[C@@H]2[C@H]1C1CCN2CC1 | -19 | 2.34 |
| Cc1ccc2c(n1)N(C)[C@H](CO)CCN(CC1CC1)C2 | -2 | 0.33 |
| COCCc1n[nH]c(C2(N3CCCCC3)CCCCC2)n1 | -4 | 0.68 |
| Cn1cc(CCNS(=O)(=O)c2cc3oc(=O)[nH]c3cc2Cl)cn1 | -16 | 2.43 |
| O=C(c1ccc2cccc(Cl)c2n1)N1C[C@H]2CCCN[C@H]2C1 | 8 | -1.06 |
| Cn1ccc(C(=O)N2C[C@@H](c3cc(F)cc(F)c3)[C@@H]3[C@H]2C2CCN3CC2)n1 | -3 | 0.5 |
| O=C(O)[C@@]12COc3ccccc3[C@@H]1CN(CCCc1cccnc1)C2 | 2 | -0.31 |
| c1ccc([C@H]2CN(c3nnnn3-c3ccccc3)[C@@H]3C4CCN(CC4)[C@H]23)cc1 | -8 | 1.18 |

| SMILES | % Inhibition [%] | Z score |
| --- | --- | --- |
| Cc1cnc(NC(=O)CN2CCCC2=O)s1 | -8 | 0.96 |
| CCc1cc(N2C[C@H](c3ccccc3OC)[C@@H]3[C@H]2C2CCN3CC2)ncn1 | -11 | 1.23 |
| C#CCN(C)C[C@H](O)c1ccccc1F | -7 | 1.16 |
| O[C@@H](CNC1CCCCCC1)c1ccccc1F | 10 | -1.32 |
| Cc1ocnc1C(=O)N1C2CCC1C(C(=O)N1CCc3ccccc31)C2 (stereo not drawn) | -9 | 1.11 |
| CCn1ccc(C(=O)N2C[C@@H](c3ccc4c(c3)OCO4)[C@@H]3[C@H]2C2CCN3CC2)n1 | -2 | 0.45 |
| Cc1ccoc1C(=O)N1C[C@@H](c2cccc(F)c2F)[C@@H]2[C@H]1C1CCN2CC1 | -11 | 2.16 |
| O=C(c1ccccc1)c1ccc2n1CC[C@H]2C(=O)N1CCC2(CC1)OCCO2 | 25 | -2.82 |
| CN(c1nc(Cn2c(-c3ccccc3)noc2=O)cs1)C1CC1 | -9 | 1.19 |
| C#CCNC(=O)[C@@H](NC(=O)c1ccn(C(C)C)n1)[C@@H](C)O | 3 | -0.34 |
| O=C(c1ccc(F)cc1)N1CCC2(CC1)N(c1ccccc1)C(=O)CS2(=O)=O | -14 | 2.17 |
| Cc1cc(C)n(-c2ccc(CCC(=O)N3CCC4(CC3)OCCO4)cc2)n1 | 1 | -0.11 |
| CNC(=O)C[C@H]1CS(=O)(=O)CCN1C(=O)C1C(C)(C)C1(C)C | -2 | 0.4 |
| Nc1ncccc1OC[C@@H]1CCCN2CCCC[C@H]12 | -10 | 1.3 |
| CN1CCN(Cc2cscn2)C2(CCCCC2)C1 | 2 | -0.18 |
| COc1cc(CCNC2CCOC(C(F)(F)F)C2)ccc1C (stereo not drawn) | -1 | 0.16 |
| Cc1oncc1C(=O)N1C[C@H](c2cc(F)cc(F)c2)[C@@H]2[C@H]1C1CCN2CC1 | -4 | 0.74 |
| CC(C)N1CCN(C(=O)COc2ccc3ccccc3c2)CC1 | 9 | -1.15 |
| O=C([C@@H]1COCC(=O)N1Cc1cccs1)N1CCC2(CC1)OCCO2 | -9 | 1.61 |
| CCN(CC(F)(F)F)C(=O)Nc1ccc2[nH]c(=O)oc2c1 | -13 | 1.86 |
| Cc1cccc(OCC(=O)N2CCN(Cc3ncnn3C)CC2)c1C | -12 | 1.33 |

| SMILES | % Inhibition [%] | Z score |
| --- | --- | --- |
| COc1ccccc1[C@H]1N(c2ccccn2)C(=O)[C@@H]2CCCN21 | 4 | -0.55 |
| Cc1nc(CN2C(C)CC3CCCCC32)oc1C (stereo not drawn) | -1 | 0.16 |
| COc1c(C)[nH]cc(CN(C)c2cc(-n3ccnc3)ncn2)c1=O | -5 | 0.97 |
| O=C(NCC12CCN(CC1)CC2)c1cc(F)c(Cl)cc1F | -7 | 1.11 |
| CC(C)(C)C1C=CC(NCC2(CO)CCOCC2)CC1 (stereo not drawn) | -3 | 0.65 |
| Cc1cc(-c2c(C#N)c(N)nc3c2[C@@H]2CC[C@H](C3)N2)oc1C | 0 | 0.03 |
| C[C@H]1CN(Cc2ccc(C#N)cc2)CCN1C(=O)Cc1csc(-c2cccnc2)n1 | -5 | 0.45 |
| Cc1nnc([C@H](C)NCC23CCC(CC2)N3C(=O)OC(C)(C)C)[nH]1 | 13 | -1.76 |
| CC(C)(C)N1C(=O)NC(=O)C2(Cc3ccccc3N3CCN(c4ccccc4)CC32)C1=O (stereo not drawn) | 4 | -0.53 |
| CCc1nc([C@H](C)Nc2ccc3oc(=O)[nH]c3c2)oc1-c1ccccc1 | -15 | 1.78 |
| Cc1ccc(C(=O)N2C[C@@H](c3ccccc3)[C@@H]3[C@H]2C2CCN3CC2)c(=O)n1C | 0 | -0.05 |
| Clc1snnc1CN1CCC2CCCCC2C1 (stereo not drawn) | -2 | 0.23 |
| Cc1nc(NC(=O)N2CCN3CCC[C@H]3C2)ccc1Br | 0 | 0.06 |
| CC(=O)c1c(O)nc(=O)n(C2CCCCCC2)c1O | 12 | -1.55 |
| CN1CC=C(c2noc(CCC(=O)Nc3nccs3)n2)CC1 | -9 | 1.7 |
| Brc1cnc(N2Cc3cccnc3C2)nc1 | -24 | 2.72 |
| Cc1cccc(Nc2nc(-c3ccc4c(c3)oc(=O)n4C)cs2)c1 | -27 | 3.16 |
| O=C(c1ccc(C(F)(F)F)nc1)N1C2CCC1c1cncnc1C2 (stereo not drawn) | -21 | 2.67 |
| COc1ccc(-c2oc(=O)n(Cc3cccc(OC)c3)c2-c2ccc(OC)cc2)cc1 | -8 | 1.05 |
| c1coc(CN[C@H]2CN3CCC2CC3)c1 | -7 | 1.33 |
| Fc1ccccc1CCN[C@H]1CCOC1 | -1 | 0.14 |

| SMILES | % Inhibition [%] | Z score |
| --- | --- | --- |
| Cc1ccc(C(=O)N2[C@H]3CC[C@@H]2c2cnc(C)nc2C3)cn1 | 6 | -0.91 |
| CCn1nc(C(=O)N2CCC3(CC2)OCCO3)cc1-c1cccc(Cl)c1 | 0 | 0.04 |
| CCc1ccc(CNC2=NCCN2)cc1 | -15 | 2.03 |
| CN(CCc1ccc2c(c1)CCO2)Cc1cnccn1 | -7 | 1.05 |
| C=CCn1c(=O)oc2ccc(C(=O)N3CCN(c4cccc(Cl)c4)CC3)cc21 | -8 | 1.06 |
| O[C@@H](CNC1CCCC1)c1ccccc1 | 14 | -1.73 |
| CC1CC1c1nc(-c2ccc3oc(=O)[nH]c3c2)no1 (stereo not drawn) | -8 | 1.58 |
| CCN1Cc2cccnc2N2CCC[C@H]2C1 | -5 | 0.54 |
| CC1CCN(C[C@H]2C[N@@]3CC[C@H]2C[C@@H]3CNS(=O)(=O)c2ccc(Cl)cc2)CC1 | 12 | -1.91 |
| O=C(Nc1cccc(Cl)c1)Oc1ccccc1-c1ccccc1 | -6 | 0.98 |
| Cc1ccc(S(=O)(=O)Nc2ccc(C(=O)N3CCC(=O)CC3)cc2)cc1C | 6 | -1.04 |
| O=C1[C@@H]2C[C@@H](CN2)N1c1ccc(F)c(F)c1 | -10 | 1.79 |
| CNc1nc(C)c(C(=O)N2C[C@H](c3ccccc3)[C@@H]3[C@H]2C2CCN3CC2)s1 | -10 | 0.9 |
| COc1cccc2c1OC[C@@]1(C(=O)O)CN(C(=O)c3ccc(Cl)cc3)C[C@@H]21 | 2 | -0.46 |
| CCCc1nc(C(N)=O)nn1Cc1c(C)cc(C)nc1OC | 1 | -0.15 |
| Cc1cccc(-n2nnnc2C2(NC3CCCCC3)CCCCC2)c1 | -9 | 1.17 |
| O=C(O)C1C2CC1CN(Cc1ccccc1)C2 (stereo not drawn) | 4 | -0.69 |
| C#CCN(C)C[C@H]1C[N@@]2CC[C@H]1C[C@@H]2CNC(=O)c1ccccc1 | 33 | -3.75 |
| COc1cccc(C2=NO[C@H](C(=O)N3CCC4(CC3)OCCO4)C2)c1 | -3 | 0.49 |
| CCN(CC)C(=O)Oc1ccc2c(ccn2Cc2cc(C)cc(C)c2)c1NC(=O)c1cc(C(F)(F)F)cc(C(F)(F)F)c1 | -6 | 0.85 |
| C[C@@H](Cc1c(Cl)cccc1Cl)NC(=O)CCc1nnc[nH]1 | -7 | 1.22 |
